Four molecules from article PMC12457691 can be followed below.

No constants are given. Whether binding was seen depends on the method and setting. For some assays here: Binding seen in cells or lysates may run through a third protein. Some entries that bind do so weakly or less than the wild type. Where a sequence is shown, tags or fusion partners need not be part of it.

Test [1] deals with T1, RodA, fused to the T18 or T25 fragment of adenylate cyclase (pT18-rodA, pT25-rodA) (B. subtilis 168) (UniProt P39604).
T1 sequence: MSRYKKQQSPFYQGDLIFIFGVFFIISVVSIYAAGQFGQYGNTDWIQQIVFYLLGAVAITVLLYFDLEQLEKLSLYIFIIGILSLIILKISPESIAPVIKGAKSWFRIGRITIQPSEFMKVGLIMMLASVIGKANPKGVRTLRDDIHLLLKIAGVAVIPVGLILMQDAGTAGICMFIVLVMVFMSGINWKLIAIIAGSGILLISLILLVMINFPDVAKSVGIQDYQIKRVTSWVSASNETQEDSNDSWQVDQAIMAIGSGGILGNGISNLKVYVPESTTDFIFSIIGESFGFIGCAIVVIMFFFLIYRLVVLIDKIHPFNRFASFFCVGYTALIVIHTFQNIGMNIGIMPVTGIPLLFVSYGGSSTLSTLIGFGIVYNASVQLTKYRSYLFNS
The test can be described thus: two-hybrid; bacterial adenylate cyclase two-hybrid (T18 and T25 fusions) in E. coli BTH101; cultures spotted on LB-Agar with 0.5 mM IPTG and 40 ug/ml X-Gal, 30 °C overnight; blue colonies indicate a positive interaction.

For test [2], the target named is T2, GpsB, fused to the T18 or T25 fragment of adenylate cyclase (pT18-gpsB, pT25-gpsB) (B. subtilis 168) (UniProt P0CI74).
T2 sequence: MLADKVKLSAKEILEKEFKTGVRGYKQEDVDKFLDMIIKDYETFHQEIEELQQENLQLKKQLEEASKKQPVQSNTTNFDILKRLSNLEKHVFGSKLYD
The test is described as above.

The target of test [3] is T3, RodA-GFP (B. subtilis 168) (UniProt P39604).
T3 sequence: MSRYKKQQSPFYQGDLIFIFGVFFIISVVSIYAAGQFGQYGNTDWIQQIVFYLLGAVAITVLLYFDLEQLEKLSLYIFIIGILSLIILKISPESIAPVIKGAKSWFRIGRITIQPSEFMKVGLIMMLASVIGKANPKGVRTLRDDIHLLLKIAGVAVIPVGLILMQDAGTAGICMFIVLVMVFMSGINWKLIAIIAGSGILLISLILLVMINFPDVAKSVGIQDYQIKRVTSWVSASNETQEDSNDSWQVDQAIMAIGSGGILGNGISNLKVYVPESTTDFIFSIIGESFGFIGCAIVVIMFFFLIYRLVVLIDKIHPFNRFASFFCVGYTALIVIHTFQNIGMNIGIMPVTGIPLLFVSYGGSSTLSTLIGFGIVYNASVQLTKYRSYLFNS
Kind of test: co-IP; cells treated with 0.5% formaldehyde for 15 min; membrane proteins solubilised with 0.5% DDM; anti-GFP antibody resin (Chromotek), 2 h at room temperature; elution with SDS sample buffer; western blot with anti-RagB and anti-GFP. In general terms: A western blot detects proteins with antibodies after separation by electrophoresis.

For test [4], the target named is T4, purified recombinant full-length 6His-RagB (B. subtilis 168) (UniProt O32031).
T4 sequence: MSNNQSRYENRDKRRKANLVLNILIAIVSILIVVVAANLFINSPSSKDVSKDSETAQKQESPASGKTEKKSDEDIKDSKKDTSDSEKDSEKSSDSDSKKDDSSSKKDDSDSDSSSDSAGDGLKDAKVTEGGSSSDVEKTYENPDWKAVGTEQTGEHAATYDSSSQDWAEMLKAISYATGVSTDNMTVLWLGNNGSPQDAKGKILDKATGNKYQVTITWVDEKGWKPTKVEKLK
Kind of test: pull-down; membrane protein extract of B. subtilis SG825 with RodA-GFP (50 mM HEPES pH 8, 200 mM NaCl, 1 mM MgCl2, 1 mM CaCl2, 0.5% DDM) incubated with 100 ug purified 6His-RagB for 1 h at 4 °C, then purified on Ni-NTA resin (buffers with 0.1% DDM); western blot; only the target purified.

B1: RagB (YrrS), fused to the T25 fragment of adenylate cyclase (pT25-ragB) (protein, UniProt O32031 1-233)
chain: MSNNQSRYENRDKRRKANLVLNILIAIVSILIVVVAANLFINSPSSKDVSKDSETAQKQESPASGKTEKKSDEDIKDSKKDTSDSEKDSEKSSDSDSKKDDSSSKKDDSDSDSSSDSAGDGLKDAKVTEGGSSSDVEKTYENPDWKAVGTEQTGEHAATYDSSSQDWAEMLKAISYATGVSTDNMTVLWLGNNGSPQDAKGKILDKATGNKYQVTITWVDEKGWKPTKVEKLK
As for B1, the binding entry in test [1] and in test [2] was “binds” throughout.

B2: RagB, endogenous in B. subtilis SG818 (protein, UniProt O32031 1-233)
chain: MSNNQSRYENRDKRRKANLVLNILIAIVSILIVVVAANLFINSPSSKDVSKDSETAQKQESPASGKTEKKSDEDIKDSKKDTSDSEKDSEKSSDSDSKKDDSSSKKDDSDSDSSSDSAGDGLKDAKVTEGGSSSDVEKTYENPDWKAVGTEQTGEHAATYDSSSQDWAEMLKAISYATGVSTDNMTVLWLGNNGSPQDAKGKILDKATGNKYQVTITWVDEKGWKPTKVEKLK
B2: the binding entry in test [3] is listed as “binds”.

B3: RodA-GFP (protein, UniProt P39604 1-393)
chain: MSRYKKQQSPFYQGDLIFIFGVFFIISVVSIYAAGQFGQYGNTDWIQQIVFYLLGAVAITVLLYFDLEQLEKLSLYIFIIGILSLIILKISPESIAPVIKGAKSWFRIGRITIQPSEFMKVGLIMMLASVIGKANPKGVRTLRDDIHLLLKIAGVAVIPVGLILMQDAGTAGICMFIVLVMVFMSGINWKLIAIIAGSGILLISLILLVMINFPDVAKSVGIQDYQIKRVTSWVSASNETQEDSNDSWQVDQAIMAIGSGGILGNGISNLKVYVPESTTDFIFSIIGESFGFIGCAIVVIMFFFLIYRLVVLIDKIHPFNRFASFFCVGYTALIVIHTFQNIGMNIGIMPVTGIPLLFVSYGGSSTLSTLIGFGIVYNASVQLTKYRSYLFNS
Regarding B3, the binding entry in test [4] is listed as “binds”.

B4: GpsB, fused to the T18 or T25 fragment of adenylate cyclase (pT18-gpsB, pT25-gpsB) (protein, UniProt P0CI74 1-98)
chain: MLADKVKLSAKEILEKEFKTGVRGYKQEDVDKFLDMIIKDYETFHQEIEELQQENLQLKKQLEEASKKQPVQSNTTNFDILKRLSNLEKHVFGSKLYD
As to B4, the binding result in test [1] was “no binding”.
